Test results from the supplement of paper PMC3334620.
In all, about 33,000 sequences were measured (“E-score (-0.5 to 0.5)”: median about -0.012, highest 2% from about 0.27 on). The list shows a part of the results.

target: T1, Vhr1 (UniProt P40522); assay: PBM E-score (8-mer binding enrichment) (E-score (-0.5 to 0.5)); higher = stronger / more preferred TF binding; most listed sequences are background and not binding sites; conditions: protein concentration: 200 nM; construct: GST-full length
T1 sequence: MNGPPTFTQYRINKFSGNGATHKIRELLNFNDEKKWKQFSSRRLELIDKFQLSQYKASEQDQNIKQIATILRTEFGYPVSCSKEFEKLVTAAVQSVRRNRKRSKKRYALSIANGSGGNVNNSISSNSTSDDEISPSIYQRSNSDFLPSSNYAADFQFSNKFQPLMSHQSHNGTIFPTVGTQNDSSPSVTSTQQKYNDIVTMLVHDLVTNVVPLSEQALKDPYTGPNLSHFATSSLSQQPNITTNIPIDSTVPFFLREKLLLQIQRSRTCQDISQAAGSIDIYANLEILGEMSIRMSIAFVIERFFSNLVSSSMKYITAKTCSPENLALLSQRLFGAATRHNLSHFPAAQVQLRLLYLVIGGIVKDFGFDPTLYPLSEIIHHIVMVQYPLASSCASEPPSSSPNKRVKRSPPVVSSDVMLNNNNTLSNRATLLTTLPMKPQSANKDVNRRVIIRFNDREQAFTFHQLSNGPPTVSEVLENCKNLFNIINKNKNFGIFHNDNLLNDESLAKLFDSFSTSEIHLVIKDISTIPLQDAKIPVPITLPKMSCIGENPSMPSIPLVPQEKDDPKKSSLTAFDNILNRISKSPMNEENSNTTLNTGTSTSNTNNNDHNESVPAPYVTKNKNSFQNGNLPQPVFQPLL
In short: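 Full-length yeast transcription factors or their DNA-binding domains, GST-tagged and expressed with PURExpress, were applied at about 100-200 nM to universal all-10-mer Agilent arrays. These arrays had been made double-stranded by primer extension on fresh or once-stripped slides. Detection used fluorescent anti-GST, normalisation used masliner, and E-scores for ungapped eight-base words pooled with reverse complements came from the Universal PBM Analysis Suite.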

Sequence | PBM E-score
AGTCCCCA | 0.0252
ATCAGCCA | 0.0307
TACGGGGA | -0.0282
AGGCCATC | -0.0902
AAATGGAC | -0.0108
AGCAGTTC | -0.0478
TCAGGTAA | 0.0977
CGTTATAA | -0.00255
GGGGGTAA | -0.0654
AAGTTAGT | -0.0445
ACAGGGTA | 0.122
GGGGGGGA | -0.124
AAGTAACG | -0.0369
GATGAGGA | -0.143
GGATTGAA | 0.0648
AGGCGTTC | -0.296
ATTCGAGC | -0.0346
GTATGAAA | 0.131
TATAGACA | 0.0913
CCCCTGCC | 0.00437
AACAGGGT | -0.0439
GAATACGA | 0.0524

Sequence | PBM E-score
TCACATGA | 0.129
GGGGACAA | -0.0606
CACGAGTA | 0.0881
AACTACTG | 0.142
ATGGATAG | 0.0432
AGTTGCGC | -0.0359
ATAGACAA | 0.0968
ACCCCCCC | -0.176
ACCCCGGC | -0.00836
CTCAAGTA | -0.141
AGGCCAGC | -0.0611
GATAACGC | -0.0925
CAGATACA | 0.222
CGATAACG | -0.153
ACCAAAAT | 0.089
CATGCATC | 0.28
CGCTGCCA | -0.0656
GTCTTTGA | -0.199
CCACGATC | -0.0106
ACGTTTAT | 0.0767
AGCAGACG | -0.00622
TAGGTACA | -0.218

Sequence | PBM E-score
CAACATCA | 0.148
CCTGCGGA | -0.0419
AGTATAAG | 0.109
CGACAGTC | -0.102
CGAGAGTA | 0.0247
AGCAGCTG | 0.0423
AAACCGTT | -0.0781
GTAGGCGA | 0.097
GTAGCCAA | -0.0795
CCAGAGAG | -0.0114
CGCTGGCC | -0.0284
AGGATGGC | 0.124
ACACTCCG | -0.0633
CAGAGTGA | 0.0508
AACTCGAT | 0.081
AAGACCAC | -0.19
CTCATTGA | -0.127
CAGTGTGC | -0.0758
ATAAGATA | 0.0723
ACAACTCA | 0.192
CCAGACGG | -0.0493
CGATGCCC | -0.165

Sequence | PBM E-score
ATTGGAGA | -0.115
AATTGGAA | -0.0986
CGGTGCGA | 0.151
AATCACCG | 0.266
AATAGGAA | 0.00091
TGCCGAAA | -0.207
CCGCTATA | -0.0648
AATTCGAT | -0.0685
GTACTCAA | 0.198
ACGTGGGA | 0.0803
AGGCTATC | 0.0879
AGAGGTTA | -0.0475
CTGGGATC | -0.00223
GCCCGGAA | 0.0467
ACGTCCTG | -0.152
CAGAATAG | 0.0389
CATTATAC | 0.208
CTCATTCA | 0.0763
ATGAGCCC | 0.077
GCGTTGGA | -0.0693
